This is an account of results in ChEMBL document CHEMBL4888484, “Replenishing the malaria drug discovery pipeline: Screening and hit evaluation of the MMV Hit Generation Library 1 (HGL1) against asexual blood stage Plasmodium falciparum ,using a nano luciferase reporter read-out” (2022).

The whole screen tested about 150,000 compounds, of which about 540 (0.36%) showed an effect of 50% or more. The list shows a part of the results.

This assay concerns Plasmodium falciparum. Briefly: Primary screen in NF54 nanoGlo assay, in single point, at 2uM, 72h; a lower Z score goes with more inhibition. In kind it is functional, Erythrocyte. As to conditions: timepoint 72 hour.
In general, % Inhibition refers to the change of the read-out against control, counted positive when it falls. Turning to `O=C(O)c1csc([C@@H]2CCCN2c2ncc(C(F)(F)F)s2)n1`, the “% Inhibition” value is -10% and the Z score amounted to 1.39.
For `COc1ccc(C)cc1S(=O)(=O)NC1CC(=O)N(C2CC2C)C1` (centres undefined) the same measures were -1% and 0.12.
On the same counts, the results for `CC(=O)Nc1ccc(N)cc1C(F)(F)F` are -15% and 1.97.
For `CNC(=O)c1nc(-c2ccccc2)n2c1CCN(C(=O)c1ccc(OC)nc1)CC2` the same measures were -16% and 1.89.
As to `O=C(NCc1cccnc1-n1cnc2ccccc21)c1ccoc1`, the “% Inhibition” value is listed as -7% and the Z score was 0.97.
On the same counts, the results for `Cc1ccc(N2CCCN(Cc3ccccc3C)C2=O)c(NC(=O)Cc2ccc(F)cc2)c1` are 9% and -1.09.
On the same counts, the results for `CN1C(=O)C[C@H](N2CCN(c3ncccn3)CC2)C1=O` are 0% and -0.03.
For the molecule `C[C@@H]1NCCN=C1NC(C)(C)CC(C)(C)C`, the “% Inhibition” value is reported as 5% and the Z score is -0.67.
Turning to `C[C@@]1(C(=O)N2CCN(c3ccccc3F)CC2)Oc2ccccc2NC1=O`, the “% Inhibition” value is recorded as 1% and the Z score was -0.16.
Turning to `CC1=CCN(C(=O)c2ccc3c(c2)C[C@H](C)O3)CC1`, the “% Inhibition” value is on record as -5% and the Z score came to 0.82.
`O=C1NCCC[C@@H]1Nc1nc(-c2ccccc2)nc2ccccc12`: the “% Inhibition” value is recorded as -3% and the Z score turned out to be 0.54.
For `CN1CCC[C@H](CN(C)Cc2cccc(-c3cccnc3)c2)C1` the same measures were -5% and 0.46.
For `CC(C)Oc1ccc(-c2nc(C(=O)NC3CCOC(C4CC4)C3)cs2)cc1` (centres undefined) the same measures were -9% and 1.05.
On the same counts, the results for `CCCc1nnc(N[C@@H]2C[C@@H](C(=O)NC)N(Cc3cccc(F)c3)C2)s1` are -8% and 1.64.
For the molecule `COc1ccc(-c2nc(NC3CC3)nc3nn(-c4ccc(Cl)c(Cl)c4)c(N)c23)cc1OC`, the “% Inhibition” value was -4% and the Z score is 0.66.
For `Cc1cc(CN2CCN(c3nc4ccccc4nc3C)CC2)on1` the same measures were -9% and 1.1.
On the same counts, the results for `O=c1[nH]c2ccccc2c(=O)n1C[C@H]1COc2ccccc2O1` are 7% and -0.92.
For the molecule `COc1ccc(CC(=O)Nc2cc(C)n(-c3cccc(Cl)c3)n2)cc1`, the “% Inhibition” value stood at 80% and the Z score was -8.55.
On the same counts, the results for `Cc1cc(C(=O)NC(C2CCNCC2)[C@H]2C[C@@H](O)C2)ccc1Cl` (some centres undefined) are -14% and 2.09.
In the case of `CCOC(=O)NCCn1cc(-c2ccncc2)cn1`, the “% Inhibition” value is reported as -10% and the Z score is listed as 1.59.
On the same counts, the results for `CCn1cc(CNc2cccc3c2CCN(c2ccc(C)nn2)C3)nn1` are -8% and 1.43.
On the same counts, the results for `COCC(=O)NC[C@H]1Cn2c(-c3ccccc3)cnc2CO1` are 34% and -3.8.
With `COc1ccc(Nc2ccc(-c3nc(-c4ccc(C)cc4)no3)nn2)c(OC)c1`, the “% Inhibition” value was -14% and the Z score is 2.03.
On the same counts, the results for `CC(C)Cn1cccc(C(=O)NCC(=O)N2CCCO2)c1=O` are 5% and -0.79.
On to `CC1(C)O[C@@H]2C[C@@](OCc3cccc(F)c3)(C(=O)NC3CC3)CC(OCc3cccc(Cl)c3)[C@@H]2O1` (some centres undefined), for which the “% Inhibition” value is -9% and the Z score was 1.69.
For the molecule `Cc1ccn2c(F)c(C(=O)NCCOc3nonc3C)nc2c1`, the “% Inhibition” value is given as -2% and the Z score came out at 0.3.
For `CC[C@H](NC(=O)N1CCC(N2CCOCC2)CC1)c1ccnn1C` the same measures were -6% and 1.06.
As to `Cc1c(Cl)ccc2c1NC(=O)[C@]21N2CCC[C@H]2[C@@H](C(=O)c2ccc(Cl)cc2Cl)[C@]12C(=O)Nc1ccccc12`, the “% Inhibition” value worked out at 1% and the Z score is reported as -0.07.
On the same counts, the results for `COCCNC(N)=NCCC1=CCCCCC1` are -2% and 0.31.
For `O=C(c1cn2cc(-c3ccc(C(F)(F)F)cc3)ccc2n1)N1CCCC1` the same measures were -11% and 1.29.
For `CC(C)c1cc(CNC(=O)N2CCC[C@@H]2C(N)=O)no1` the same measures were -11% and 1.53.
On to `Cc1cc(NC(=O)N[C@H](c2ccccc2)C2(CO)CCC2)n(C)n1`, for which the “% Inhibition” value is -3% and the Z score came to 0.21.
On the same counts, the results for `COC(=O)c1cncc(NC(=O)N2CCC[C@@H]2c2csc(C)n2)c1` are 9% and -1.26.
On the same counts, the results for `CCCN(Cc1nccn1C)C(=O)NC[C@@H](c1cccc(C)c1)N(C)C` are -2% and 0.29.
On the same counts, the results for `CCCC1C2C(=O)N(c3cccc(C(F)(F)F)c3)C(=O)C2ON1c1ccccc1` (centres undefined) are -14% and 1.49.
Take `CC[C@H](NC(=O)c1cn(C)c(=O)[nH]c1=O)c1nccs1`: the “% Inhibition” value is reported as 3% and the Z score is reported as -0.51.
For the molecule `N#Cc1ccc(COCC2CCN(CC(=O)NCc3ccc(F)cc3)CC2)cc1`, the “% Inhibition” value is recorded as -20% and the Z score is listed as 2.26.
On the same counts, the results for `Cc1ccc(CN[C@H]2CCOC2)c2cccnc12` are -2% and 0.4.
As to `C[C@H](NC(=O)C1CCOCC1)C(=O)Nc1ccc(OC2CCCC2)c(Cl)c1`, the “% Inhibition” value is 9% and the Z score is -1.17.
Consider `C[C@@H](C(=O)N1CCC(C)(C#N)CC1)N1CCCCCC1`, for which the “% Inhibition” value was -10% and the Z score is reported as 1.02.
On the same counts, the results for `COCCN1C[C@@H](Cc2ccc(O)c(Cl)c2)CC1=O` are -23% and 2.32.
For `O=C(CN1C(=O)COc2ccccc21)OCc1coc(-c2ccccc2Cl)n1` the same measures were -7% and 0.77.
